Measured values: PubChem BioAssay AID602393 (Broad Institute, 2012)
The whole screen tested about 350,000 compounds, of which about 7,000 (2%) were called active. The inconclusive results got no clear call from the source; some entries with a clear call stand among them for comparison. Rule as the data show it: active = activation above about 40%; inconclusive = no clear call, values can overlap the other calls; inactive = below that. Where a structure was tested more than once in an assay, its records may differ in their call.

assay: raisers of Bmi1 knock-in reporter signal – mouse ES cells, Bmi1 luciferase knock-in, single point, esBAF inhibitor project, primary screen (AID 602393); settings: 24 h, at 12.5 µM, stronger effect = higher value, 100% = twice the neutral-well signal;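 also: 0% = median of the plate's neutral control wells and 100% = double that signal; a rise in the Bmi1 reporter signal indicates esBAF inhibition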

SMILES	reporter increase
O=C(Nc1cc(-c2nc3ccccc3s2)ccc1Cl)c1ccc2c(c1)OCO2	inconclusive: 40.8%
CCCCNc1ccc(C(=O)Nc2cccc(C)n2)cc1[N+](=O)[O-]	inconclusive: 43.4%
CCn1c(CNc2cccc(Cl)c2)nnc1SCc1ccccc1	inactive: 6.21%
Cc1ccc(C)c(NC(=O)c2cc3ccccc3o2)c1	active: 74%
Cc1oc2cc3oc(=O)cc(C)c3cc2c1C	inconclusive: 43.1%
CN(C)c1ccc(/C=N/N=C/c2ccccc2O)cc1	inconclusive: 40.6%
O=C(COC(=O)/C=C/c1cccs1)Nc1nc(-c2cccc(Br)c2)cs1	inconclusive: 40.2%
C[C@H](CO)N1C[C@H](C)[C@H](CN(C)C(=O)NC2CCCCC2)Oc2ccc(NC(=O)CCCN(C)C)cc2C1=O	inactive: -1.77%
O=C(N/N=C1\C2CN3CCN(C2)CC1(c1ccccc1)C3)c1ccc(F)cc1	inconclusive: 26.2%
Cc1ccc(NC(=O)c2nsc(Cl)c2Cl)cc1	inconclusive: 40.1%
COc1cccc2sc(Nc3nc(C)c(C(C)=O)s3)nc12	inconclusive: 44%
O=C(NCC[C@@H]1CC[C@@H](NC(=O)Nc2cc(F)ccc2F)[C@@H](CO)O1)Nc1ccc(Cl)cc1	inconclusive: 40.8%
COc1cc(C(=O)O/N=C2\C=CC(=O)C(C)=C2)cc(OC)c1OC	inactive: -6.91%
COC(=O)Nc1ccc(OCc2ccccc2)cc1	inconclusive: 45.3%
COc1ccc(NC(=O)Nc2cccc3c2O[C@@H](CN(C)CC2CC2)[C@H](C)CN([C@H](C)CO)C3=O)cc1	inactive: -0.596%
C[C@@H]1CCCCO[C@@H](CN(C)Cc2ccc(Cl)c(Cl)c2)[C@H](C)CN([C@H](C)CO)C(=O)c2cc(NC(=O)Nc3ccc(C(F)(F)F)cc3)ccc2O1	inactive: -0.973%
COc1ccc(C(=O)NC(C)CCc2ccccc2)c(O)c1 (stereo not drawn)	inconclusive: 52.5%
COc1ccccc1C(=O)COC(=O)C1(C)CC1(Cl)Cl (stereo not drawn)	active: 60.2%
COc1cc(NC(=O)c2cc3ccccc3o2)c(OC)cc1Br	inactive: 1.34%
Cc1nc2ccc(S(=O)(=O)Nc3ccc(-c4nc5cccnc5s4)cc3)cc2s1	inconclusive: 41.2%
Brc1ccccc1-n1nnc(-c2cccnc2)n1	inconclusive: 40.1%
NS(=O)(=O)c1ccc(NC(=S)NNC(=O)CCC(=O)Nc2ccccc2Cl)cc1	inactive: 8.73%
CCOc1ccccc1CNC(=O)CCn1ccc2cc(S(=O)(=O)N3CCCCC3)ccc21	inactive: 6.98%
Cc1ccc(S(=O)(=O)Nc2cccc3c2O[C@@H](CN(C)C(=O)Nc2ccc4c(c2)OCO4)[C@H](C)CN([C@@H](C)CO)C3=O)cc1	active: 59.9%
C[C@@H]1CCCCO[C@@H](CN(C)S(=O)(=O)c2cn(C)cn2)[C@@H](C)CN([C@@H](C)CO)C(=O)c2cc(NC(=O)Nc3ccc4c(c3)OCO4)ccc2O1	active: 58.2%
CN(Cc1ccsc1)C(=O)CCc1nnc(CCCc2ccccc2)o1	inconclusive: 48.2%
O=Cc1cccc(OC(=O)/C=C/c2ccco2)c1	active: 48.2%

SMILES	reporter increase
Cc1ccccc1N(C(=O)Cn1nnc(-c2ccc(F)cc2)n1)C(C(=O)NC(C)(C)C)c1ccncc1 (stereo not drawn)	inactive: 6.32%
CCCC(=O)N1CCCC(c2nc(-c3cccs3)no2)C1 (stereo not drawn)	inconclusive: 41.3%
Brc1ccc(/C=N/Nc2nc3ccccc3o2)cc1	inconclusive: 44.1%
c1nc(C2CCCCC2)cc2cc3c(cc12)OCO3	active: 50.7%
Cc1cccc(-c2noc(-c3c(C)noc3C)n2)c1	inconclusive: 45.8%
CN(C)c1cccc(-c2cc(Nc3ccc(C(C)(C)C)cc3)ncn2)c1	inconclusive: 41.5%
COc1cc(-c2nnc(COC(=O)c3ccc([N+](=O)[O-])o3)o2)cc(OC)c1OC	inactive: -11%
CC(=O)c1ccc(N2CCN(C(=O)C3CCC3)CC2)cc1	inconclusive: 40.3%
CN(C)CC(=O)Nc1ccc2c(c1)[C@H]1C[C@@H](CC(=O)NCc3ccncc3)O[C@@H](CO)[C@H]1O2	inactive: 0.544%
CCN1C(=O)[C@@H]2[C@@H]3CN(S(=O)(=O)c4ccc(C)cc4)[C@@H](c4cccc5ccccc45)[C@@H]3C(=O)C[C@@H]2C1=O	inactive: -0.912%
CNc1cc([N+](=O)[O-])ccc1OCc1ccccc1	inconclusive: 45.5%
CC(C)NC(=O)N(C)C[C@H]1Oc2ncc(C#CCC3CCCC3)cc2C(=O)N([C@@H](C)CO)C[C@H]1C	inactive: -1.94%
CC(C)(C)C(=O)N1CCN(c2ccc([N+](=O)[O-])cc2Cl)CC1	inconclusive: 40.3%
CCN(CC)S(=O)(=O)c1cccc(-c2nc3n(n2)Cc2ccccc2-3)c1	active: 75.1%
C[C@H](CO)N1C[C@H](C)[C@@H](CN(C)C(=O)Nc2ccc(F)cc2)OCCCC[C@H](C)Oc2ccc(NC(=O)NC3CCCCC3)cc2C1=O	inactive: 2.51%
O=C(C=Cc1cccc(O)c1)c1ccccc1O	inconclusive: 42.3%
COc1ccc(OCc2cc(C(=O)NCc3nc(C)cs3)no2)c(Cl)c1	inconclusive: 44%
CC(C)=CCc1c2c(c3occ(-c4ccc(O)c(O)c4)c(=O)c3c1O)C=CC(C)(C)O2	inactive: -41%
O=C(Nc1ccc2c(c1)ncn2C1CCCCC1)c1ccco1	inconclusive: 40.5%
COc1cccc2sc3cc(C#Cc4ccccn4)ccc3c(=O)c12	inconclusive: 42.8%
COCC(=O)N1C[C@H](C)[C@H](OC)CN(C)C(=O)c2ccc(NC(=O)c3ccc(OC)cc3)cc2OC[C@H]1C	inactive: -5.59%
O=C(CNC(=O)c1ccccc1)OCc1nnc(-c2ccccc2)o1	inconclusive: 50%
O=C(/C=C/c1ccccc1)Nc1cccnc1Cl	inconclusive: 42.4%
O=C(Cc1nnc(NC(=O)c2ccccc2)s1)N/N=C/c1ccc(O)cc1	inactive: 10.2%
Cc1ccc(NS(=O)(=O)c2cc(Br)cnc2N)cc1C	inactive: -1.43%
Fc1ccc(OCc2nc(-c3cccs3)no2)cc1	inconclusive: 47.6%
